Source: the supplement of paper PMC4166925
± gives the standard deviation of the averaged measurements. In all, about 33,000 sequences were measured (“E-score (dimensionless, -0.5 to 0.5)”: median about -0.046, highest 2% from about 0.36 on). The list shows a part of the results.

These sequences were tested on T1, SpTbr T-box DNA-binding domain (GST fusion) (assay: PBM E-score of 8-mer (E-score (dimensionless, -0.5 to 0.5)); Tbr is Tbrain of the sea star Patiria miniata (Pm) or the sea urchin Strongylocentrotus purpuratus (Sp); higher = stronger binding preference; most listed sequences are background and not binding sites). Settings: the construct has about 5 more residues each side.
T1 sequence: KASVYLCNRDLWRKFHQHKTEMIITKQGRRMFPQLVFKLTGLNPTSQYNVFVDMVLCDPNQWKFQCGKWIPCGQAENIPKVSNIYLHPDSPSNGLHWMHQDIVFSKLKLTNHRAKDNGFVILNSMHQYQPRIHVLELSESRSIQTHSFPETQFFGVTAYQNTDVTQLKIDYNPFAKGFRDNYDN
Procedure, shortened: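 Universal Agilent oligonucleotide arrays, made double-stranded by primer extension, were incubated with 200 nM GST-fused Tbr T-box DNA-binding domain in PBS (pH 7.5). The protein was expressed in BL21 E. coli at 20 °C and purified by glutathione affinity chromatography. After scanning and quantification, the Universal PBM Analysis Suite assigned an enrichment E-score to each ungapped 8-mer, averaged over duplicate arrays.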

Sequence	PBM E-score of 8-mer
ACTAGGCC	0.00185 ± 0.069
AGTAAAGG	-0.0337 ± 0.045
AGAGGTGG	0.285 ± 0.031
CACGCGAG	0.281 ± 0.029
GAGCAGAC	0.0347 ± 0.054
CACATGCC	0.0851 ± 0.12
ACTCGCAT	-0.00696 ± 0.059
CTTGGGGA	-0.0447 ± 0.002
CCGTAAGG	-0.0419 ± 0.065
GTTAGATA	-0.00904 ± 0.0026
GGAACCTA	-0.211 ± 0.0083
ACTGAATG	-0.223 ± 0.044
CGCCTACG	0.0976 ± 0.047
TGACCAAA	-0.137 ± 0.02
ATTAGGCG	0.0618 ± 0.013
AATAATCT	-0.265 ± 0.044
ATGAACGA	-0.115 ± 0.065
CACCTCAA	0.375 ± 0.024
ATGACATC	-0.181 ± 0.077
CCCTAGGG	-0.203 ± 0.032
TTCAGGAA	-0.1413 ± 0.0005
CTTGCCAA	0.153 ± 0.021
AAAGACCA	-0.116 ± 0.022
GGTGACGA	0.418 ± 0.018
CAGCTCCC	-0.145 ± 0.07

Sequence	PBM E-score of 8-mer
GAACCTCC	-0.159 ± 0.023
ATTAAACA	0.104 ± 0.071
AATATCTA	-0.235 ± 0.068
CATCGATA	-0.00022 ± 0.06
CGCCGACG	0.0879 ± 0.094
ACACCCCC	0.363 ± 0.015
GTGGGAAC	0.336 ± 0.04
GGCGCCAC	0.285 ± 0.023
CAGCTTCC	-0.271 ± 0.0048
TGGATACA	-0.148 ± 0.033
AAAGTAAG	-0.0307 ± 0.034
CATCGGGC	-0.0542 ± 0.062
ACGACTAA	-0.113 ± 0.084
GCCAGCAA	-0.133 ± 0.075
CCCGTTGA	0.089 ± 0.041
GGCGGACC	-0.0977 ± 0.012
CTAAACAC	0.124 ± 0.019
AGGGATCG	0.0647 ± 0.027
CACCTCAG	0.376 ± 0.0075
CAAGGCCA	-0.167 ± 0.032
CGTGAGGC	0.103 ± 0.0066
GGCGGGAA	0.153 ± 0.029
ACGACTAT	-0.00137 ± 0.081
CTCATCCC	-0.108 ± 0.05
ACCGCCCT	-0.287 ± 0.031

Sequence	PBM E-score of 8-mer
CAGATTGC	-0.0789 ± 0.041
ATTTAGTC	-0.0782 ± 0.063
GCCAACTA	0.12 ± 0.022
CGAAAAGC	0.122 ± 0.042
CCATTCGC	0.244 ± 0.048
TGTCGTAA	0.122 ± 0.018
CCCGTGTC	0.00147 ± 0.088
CAGAGGAA	-0.137 ± 0.092
CACGGTCG	0.0413 ± 0.091
TCTAGGCA	-0.0589 ± 0.044
CTGTCTAA	-0.168 ± 0.068
TCCAAGCA	0.0015 ± 0.0059
GATTCCGC	-0.0748 ± 0.044
ACGGTGGG	-0.228 ± 0.054
ATCGTAAC	-0.00798 ± 0.067
CGGTACCG	-0.0929 ± 0.11
GGCTTTTA	-0.038 ± 0.049
GCTGGTCC	-0.247 ± 0.035
AATATGTC	-0.0493 ± 0.12
CGCGAGGA	0.257 ± 0.036
ACTTGTAA	0.0941 ± 0.097
AAATAAGC	-0.0321 ± 0.038
CGTGGGCC	-0.2894 ± 0.0004
AGCAAAAT	-0.0958 ± 0.067
CTGGACGA	0.115 ± 0.033

Sequence	PBM E-score of 8-mer
AAAACGGC	-0.091 ± 0.023
CGGAACAA	-0.128 ± 0.025
AGTCGGTC	-0.162 ± 0.036
AATGTTAC	-0.172 ± 0.031
CGGTCTTA	-0.031 ± 0.0092
AGCTTCTC	0.0298 ± 0.03
GGTGGCGA	0.358 ± 0.02
CACATACC	0.28 ± 0.0043
GAACTTAC	-0.0233 ± 0.034
GTCACGAA	0.298 ± 0.02
CGGACAAA	-0.0576 ± 0.039
CGATGTGA	0.183 ± 0.017
ATACCTGG	0.0363 ± 0.063
CAGTGAGA	0.157 ± 0.062
TCCAAACA	0.00763 ± 0.013
CGCTTTTC	0.114 ± 0.028
GACAAGAC	0.0763 ± 0.0014
AACGTTGT	0.0629 ± 0.015
CGAAGACG	-0.187 ± 0.011
CTCTGGCA	-0.0543 ± 0.092
CTTTTACC	-0.189 ± 0.022
TTCTTCAA	-0.119 ± 0.038
AATCAGCC	-0.109 ± 0.028
TAAGATAA	-0.186 ± 0.023
CTGTTGTC	0.196 ± 0.003

Sequence	PBM E-score of 8-mer
ATCTTGAA	-0.159 ± 0.06
AGGGTACA	-0.139 ± 0.016
ACAGGGTC	0.0376 ± 0.014
CGTCTTAA	-0.156 ± 0.024
GTTTATGA	-0.1067 ± 0.001
ACGGTAGT	-0.184 ± 0.0027
AATAGGGG	-0.156 ± 0.081
CGCAGGAG	-0.0618 ± 0.062
GCCCACAC	0.323 ± 0.011
CTATGCTC	-0.00534 ± 0.12
ATTAGGGA	-0.216 ± 0.039
AAACGCTG	-0.129 ± 0.063
CATACTTC	-0.281 ± 0.03
CTTCCTTC	-0.175 ± 0.02
AGAAAGAT	-0.108 ± 0.017
TGCGGCAA	-0.0828 ± 0.018
GTAACCAC	0.131 ± 0.017
GCTGGCTA	-0.0862 ± 0.076
CCAGCGGG	-0.201 ± 0.052
AAAACACG	0.162 ± 0.0017
ATATGTAG	-0.262 ± 0.0068
ATGCAGAA	-0.135 ± 0.0029
GCAGTAAA	-0.101 ± 0.05
AGTTTTCC	-0.139 ± 0.017
AGCTTAAC	-0.114 ± 0.057

Sequence	PBM E-score of 8-mer
ATATCATG	-0.047 ± 0.0019
CCTTCTAA	-0.0346 ± 0.021
CGAATACA	0.145 ± 0.063
ATGTGCAG	0.0321 ± 0.052
CCTAGGGC	-0.0908 ± 0.074
ATTATTAC	-0.0141 ± 0.028
CATGAATG	-0.0877 ± 0.012
CACTTGTA	0.116 ± 0.046
TAACTGAA	-0.0238 ± 0.023
ACTTTTCG	0.198 ± 0.034
TTAGAAAA	-0.131 ± 0.021
CTGAGCTA	-0.182 ± 0.066
GCAGTGCA	-0.104 ± 0.014
ACCACGGA	-0.0587 ± 0.03
CAGTTCAC	0.251 ± 0.038
AGAGGCAC	-0.226 ± 0.02
CACACAAA	0.209 ± 0.022
GTGCGCGA	0.201 ± 0.12
ATATTGTG	0.185 ± 0.032
ATTAACAG	0.139 ± 0.014
GTCAGCTA	-0.00347 ± 0.018
GTATGGCA	0.0595 ± 0.0057
CAGTATCA	-0.0107 ± 0.037
ATGCCACG	0.133 ± 0.013
ACGACAAG	0.24 ± 0.026

Sequence	PBM E-score of 8-mer
GACAGTCC	-0.0255 ± 0.02
CTTCGAGA	-0.073 ± 0.056
GTCAAAAA	0.0606 ± 0.12
AAAGTGAC	0.367 ± 0.032
CCTAGTCA	0.0243 ± 0.025
TAAATATA	-0.112 ± 0.011
ACTGGCCT	-0.186 ± 0.03
GCTTGGCA	-0.00545 ± 0.042
CGCTGATA	-0.0454 ± 0.046
ACGGCTGG	-0.0696 ± 0.019
ACAGGCGG	0.00977 ± 0.0076
AGGTACGG	0.0344 ± 0.00076
CAGAGTAG	-0.204 ± 0.021
ATGACATG	-0.0149 ± 0.038
ATGAACCA	-0.244 ± 0.055
ATCAGCAT	0.119 ± 0.02
ACGAGGAG	-0.0395 ± 0.047
AAGTGGGC	0.114 ± 0.043
AAAAGTTT	0.0128 ± 0.031
CGACCTCA	0.0385 ± 0.017
CCCTACGA	-0.0943 ± 0.036
CATGTGTC	0.3458 ± 0.0021
